Values quoted from earlier work, collected in PMC11006913.
Some of the results follow.

Biological target: T1, HESX1 E149K (Homo sapiens) (UniProt Q9UBX0)
T1 sequence: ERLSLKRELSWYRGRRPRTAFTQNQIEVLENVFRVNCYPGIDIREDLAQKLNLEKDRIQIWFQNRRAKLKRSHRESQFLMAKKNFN
Details: PBM; conditions not shown; double strand, one strand shown; scale: upbm affinity estimate (log intensity, higher = more binding, comparable within an allelic series)

Sequence	binding signal
AGGCGCCT [8-mer AGGCGCCT]	9.9
ACCGAGCG [8-mer ACCGAGCG]	9.93
GCCTGCGC [8-mer GCCTGCGC]	9.86
GGACGCCC [8-mer GGACGCCC]	9.83
CAAGCACC [8-mer CAAGCACC]	10.1
CGGCACAG [8-mer CGGCACAG]	9.91
CCCTAAGG [8-mer CCCTAAGG]	9.87
CTGACGCC [8-mer CTGACGCC]	9.85
AGCCCCTG [8-mer AGCCCCTG]	9.94
AGGCCCGG [8-mer AGGCCCGG]	9.78
GGGGGTCA [8-mer GGGGGTCA]	9.93
AAAGACGC [8-mer AAAGACGC]	10.1
CAGTGAGG [8-mer CAGTGAGG]	9.98
CTCCTCTC [8-mer CTCCTCTC]	9.85
AGGACGCC [8-mer AGGACGCC]	10.1
AACCGGGT [8-mer AACCGGGT]	9.97
CGTAGGCC [8-mer CGTAGGCC]	10
CCTGGGCA [8-mer CCTGGGCA]	9.84
GCGGGCCA [8-mer GCGGGCCA]	9.93
CGTGCCGA [8-mer CGTGCCGA]	10

Sequence	binding signal
GCGCGTCC [8-mer GCGCGTCC]	9.94
CCACGGCC [8-mer CCACGGCC]	9.87
GCCGCTCC [8-mer GCCGCTCC]	9.87
CCCGGGCC [8-mer CCCGGGCC]	9.73
CGACCGGC [8-mer CGACCGGC]	10
AGGGAGCG [8-mer AGGGAGCG]	9.98
AGGCAGAC [8-mer AGGCAGAC]	10.1
ACCCCCGC [8-mer ACCCCCGC]	9.98
ATTAGTGG [8-mer ATTAGTGG]	11
AGGGCCCG [8-mer AGGGCCCG]	9.93
CCACCATC [8-mer CCACCATC]	10
CGGGTACC [8-mer CGGGTACC]	9.98
CAAGCGGC [8-mer CAAGCGGC]	10
CATTATTA [8-mer CATTATTA]	10.9
AGGCCAGG [8-mer AGGCCAGG]	9.89
CCGGAGCA [8-mer CCGGAGCA]	10
CATGGGCG [8-mer CATGGGCG]	9.99
ACCCACGG [8-mer ACCCACGG]	9.89
CCGGATCG [8-mer CCGGATCG]	10
CCGTCTAG [8-mer CCGTCTAG]	10
